Measurements: the supplement of paper PMC12645437, “Orthogonal IMiD-Degron Pairs Induce Selective Protein Degradation in Cells” (ACS Chemical Biology, 2025)
This is one part of the list.

B1: Q9UKT9 (peptide)
chain: FQCNQCGHEFTQKGNLLRHIKL
B2: Q9UKT9 (peptide)
chain: FICDQCGALFTQKGNLLRHIKL
B3: Q9UKT9 (peptide)
chain: FQCEVCGAGFTQKGNLLRHIKL
B4: Q9UKT9 (peptide)
chain: FECPICGAPFTQKGNLLRHIKL
B5: Q9UKT9 (peptide)
chain: FYCEVCGANFTQKGNLLRHIKL
B6: Q9UKT9 (peptide)
chain: FFCEICGAEFTQKGNLLRHIKL
B7: Q9UKT9 (peptide)
chain: FGCEICGREFTQKGNLLRHIKL
B8: Q9UKT9 (peptide)
chain: LKCEICGFWCTQKGNLLRHIKL
B9: Q9UKT9 (peptide)
chain: FNCEVCGATFTQKGNLLRHIKL
B10: Q9UKT9 (peptide)
chain: FRCPICGHFFTQKGNLLRHIKL
B11: Q9UKT9 (peptide)
chain: FECPICGHVFTQKGNLLRHIKL
B12: Q9UKT9 (peptide)
chain: FECEICGHIFTQKGNLLRHIKL
B13: Q9UKT9 (peptide)
chain: FWCPICGAYFTQKGNLLRHIKL
B14: Q9UKT9 (peptide)
chain: FECPVCGAWFTQKGNLLRHIKL
B15: Q9UKT9 (peptide)
chain: FLCDICGAWFTQKGNLLRHIKL
B16: Q9UKT9 (peptide)
chain: FDCEICGHHFTQKGNLLRHIKL
B17: Q9UKT9 (peptide)
chain: LSCPICGFICTQKGNLLRHIKL
B18: Q9UKT9 (peptide)
chain: FFCEICGHDFTQKGNLLRHIKL
B19: Q9UKT9 (peptide)
chain: FRCPQCGANFTQKGNLLRHIKL
B20: Q9UKT9 (peptide)
chain: LWCEICGFMCTQKGNLLRHIKL
B21: Q9UKT9 (peptide)
chain: LICPICGFRCTQKGNLLRHIKL
B22: Q9UKT9 (peptide)
chain: FICEQCGAAFTQKGNLLRHIKL
B23: Q9UKT9 (peptide)
chain: LDCNQCGFGCTQKGNLLRHIKL
B24: Q9UKT9 (peptide)
chain: FRCPICGHVFTQKGNLLRHIKL
B25: Q9UKT9 (peptide)
chain: FFCNQCGHPFTQKGNLLRHIKL
B26: Q9UKT9 (peptide)
chain: LRCNQCGFICTQKGNLLRHIKL
B27: Q9UKT9 (peptide)
chain: FRCNQCGRYFTQKGNLLRHIKL
B28: Q9UKT9 (peptide)
chain: FMCNVCGAGFTQKGNLLRHIKL
B29: Q9UKT9 (peptide)
chain: FECEVCGATFTQKGNLLRHIKL
B30: Q9UKT9 (peptide)
chain: LECNQCGFDCTQKGNLLRHIKL
B31: Q9UKT9 (peptide)
chain: FHCNQCGHPFTQKGNLLRHIKL
B32: Q9UKT9 (peptide)
chain: FFCSVCGHRFTQKGNLLRHIKL

molecular target: no compound (DMSO); experiment: log2 fold change of degron read counts, EGFP-low vs EGFP+ sorted cells; higher = lower degron-EGFP level without compound (poor expression or instability); conditions: compound: DMSO control; 18 h
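Further: jurkat cells carrying a lentiviral library of mutant zinc finger degrons fused to EGFP plus mCherry, mCherry+ cells FACS sorted, degron abundance counted by next-generation sequencing.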

Sequence	log2 fold change of degron read counts
B1	-1.52
B2	-1.11
B3	-1.97
B4	-0.173
B5	-0.952
B6	-1.5
B7	-1.36
B8	0.392
B9	-2.01
B10	0.344
B11	-1.03
B12	-1.82
B13	1.97
B14	-0.0501
B15	-0.00669
B16	-0.701

Sequence	log2 fold change of degron read counts
B17	1.04
B18	-0.975
B19	-0.911
B20	1.9
B21	0.666
B22	-1.61
B23	0.503
B24	-0.205
B25	0.977
B26	0.967
B27	0.186
B28	-0.301
B29	-1.85
B30	-0.809
B31	0.178
B32	-0.00464
